# Measured values published in the supplement of paper PMC8728848.
# This is one part of the list.
# How the values were obtained:
# Assay in all cases: glycan array binding signal (z-score within array); higher = stronger binding
# Conditions in all cases: glycan notation: IUPAC condensed, linker removed
# [1] = biological target: Gal(b1-4)GlcNAc(b1-2)Man(a1-6)[GlcNAc(b1-2)Man(a1-3)]Man(b1-4)GlcNAc(b1-4)GlcNAc
# Method in brief: (§1)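 Negative Z-scores can be read as non-binding. The Z-score is calculated within each array and then averaged across arrays of one protein sequence at different concentrations or buffers and across linkers. Arrays, 3228 in all, were curated from the Consortium for Functional Glycomics database and kept only where the protein sequence was available.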
# [2] = biological target: Gal(b1-4)GlcNAc(b1-2)Man(a1-6)[Man(a1-3)]Man(b1-4)GlcNAc(b1-4)GlcNAc
# Method in brief: as §1
# [3] = biological target: Gal(b1-4)GlcNAc(b1-2)[Gal(b1-4)GlcNAc(b1-4)]Man(a1-3)[Gal(b1-4)GlcNAc(b1-2)Man(a1-6)]Man(b1-4)GlcNAc(b1-4)GlcNAc
# Method in brief: as §1
# [4] = biological target: Gal(b1-4)GlcNAc(b1-2)[Gal(b1-4)GlcNAc(b1-4)]Man(a1-3)[Gal(b1-4)GlcNAc(b1-2)[Gal(b1-4)GlcNAc(b1-6)]Man(a1-6)]Man(b1-4)GlcNAc(b1-4)GlcNAc
# Method in brief: as §1
# [5] = biological target: Gal(b1-4)GlcNAc(b1-2)[Gal(b1-4)GlcNAc(b1-4)]Man(a1-3)[GlcNAc(b1-4)][Gal(b1-4)GlcNAc(b1-2)Man(a1-6)]Man(b1-4)GlcNAc(b1-4)GlcNAc
# Method in brief: as §1
# [6] = biological target: Gal(b1-4)GlcNAc(b1-2)[Gal(b1-4)GlcNAc(b1-4)]Man(a1-3)[GlcNAc(b1-4)][Gal(b1-4)GlcNAc(b1-2)[Gal(b1-4)GlcNAc(b1-6)]Man(a1-6)]Man(b1-4)GlcNAc(b1-4)GlcNAc
# Method in brief: as §1
# [7] = biological target: Gal(b1-4)GlcNAc(b1-2)[Gal(b1-4)GlcNAc(b1-6)]Man(a1-6)[Gal(b1-4)GlcNAc(b1-2)Man(a1-3)]Man(b1-4)GlcNAc(b1-4)GlcNAc
# Method in brief: as §1
# [8] = biological target: Gal(b1-4)GlcNAc(b1-2)[Gal(b1-4)GlcNAc(b1-6)]Man(a1-6)[Gal(b1-4)GlcNAc(b1-2)Man(a1-3)]Man(b1-4)GlcNAc(b1-4)[Fuc(a1-6)]GlcNAc
# Method in brief: as §1
# [9] = biological target: Gal(b1-4)GlcNAc(b1-2)[Gal(b1-4)GlcNAc(b1-6)]Man(a1-6)[GlcNAc(b1-4)][Gal(b1-4)GlcNAc(b1-2)Man(a1-3)]Man(b1-4)GlcNAc(b1-4)GlcNAc
# Method in brief: as §1
# [10] = biological target: Gal(b1-4)GlcNAc(b1-2)[Gal(b1-4)GlcNAc(b1-6)]Man(a1-6)[GlcNAc(b1-4)][Gal(b1-4)GlcNAc(b1-2)[Gal(b1-4)GlcNAc(b1-4)]Man(a1-3)]Man(b1-4)GlcNAc(b1-4)[Fuc(a1-6)]GlcNAc
# Method in brief: as §1
# [11] = biological target: Gal(b1-4)GlcNAc(b1-3)Gal(b1-3)GalNAc
# Method in brief: as §1
# [12] = biological target: Gal(b1-4)GlcNAc(b1-3)Gal(b1-3)GlcNAc
# Method in brief: as §1
# [13] = biological target: Gal(b1-4)GlcNAc(b1-3)Gal(b1-4)Glc
# Method in brief: as §1
# [14] = biological target: Gal(b1-4)GlcNAc(b1-3)Gal(b1-4)GlcNAc
# Method in brief: as §1
# [15] = biological target: Gal(b1-4)GlcNAc(b1-3)Gal(b1-4)GlcNAc(b1-2)Man(a1-3)[Gal(b1-4)GlcNAc(b1-3)Gal(b1-4)GlcNAc(b1-2)Man(a1-6)]Man(b1-4)GlcNAc(b1-4)GlcNAc
# Method in brief: as §1
# [16] = biological target: Gal(b1-4)GlcNAc(b1-3)Gal(b1-4)GlcNAc(b1-2)Man(a1-3)[Gal(b1-4)GlcNAc(b1-3)Gal(b1-4)GlcNAc(b1-2)Man(a1-6)]Man(b1-4)GlcNAc(b1-4)[Fuc(a1-6)]GlcNAc
# Method in brief: as §1
# [17] = biological target: Gal(b1-4)GlcNAc(b1-3)Gal(b1-4)GlcNAc(b1-2)[Gal(b1-4)GlcNAc(b1-3)Gal(b1-4)GlcNAc(b1-6)]Man(a1-6)[Gal(b1-4)GlcNAc(b1-3)Gal(b1-4)GlcNAc(b1-2)Man(a1-3)]Man(b1-4)GlcNAc(b1-4)GlcNAc
# Method in brief: as §1
# [18] = biological target: Gal(b1-4)GlcNAc(b1-3)Gal(b1-4)GlcNAc(b1-2)[Gal(b1-4)GlcNAc(b1-3)Gal(b1-4)GlcNAc(b1-6)]Man(a1-6)[Gal(b1-4)GlcNAc(b1-3)Gal(b1-4)GlcNAc(b1-2)Man(a1-3)]Man(b1-4)GlcNAc(b1-4)[Fuc(a1-6)]GlcNAc
# Method in brief: as §1
# [19] = biological target: Gal(b1-4)GlcNAc(b1-3)Gal(b1-4)GlcNAc(b1-3)Gal(b1-4)GlcNAc
# Method in brief: as §1
# [20] = biological target: Gal(b1-4)GlcNAc(b1-3)Gal(b1-4)GlcNAc(b1-3)Gal(b1-4)GlcNAc(b1-2)Man(a1-3)[Gal(b1-4)GlcNAc(b1-3)Gal(b1-4)GlcNAc(b1-3)Gal(b1-4)GlcNAc(b1-2)Man(a1-6)]Man(b1-4)GlcNAc(b1-4)GlcNAc
# Method in brief: as §1
# [21] = biological target: Gal(b1-4)GlcNAc(b1-3)Gal(b1-4)GlcNAc(b1-3)Gal(b1-4)GlcNAc(b1-2)Man(a1-3)[Gal(b1-4)GlcNAc(b1-3)Gal(b1-4)GlcNAc(b1-3)Gal(b1-4)GlcNAc(b1-2)Man(a1-6)]Man(b1-4)GlcNAc(b1-4)[Fuc(a1-6)]GlcNAc
# Method in brief: as §1
# [22] = biological target: Gal(b1-4)GlcNAc(b1-3)Gal(b1-4)GlcNAc(b1-3)Gal(b1-4)GlcNAc(b1-2)[Gal(b1-4)GlcNAc(b1-3)Gal(b1-4)GlcNAc(b1-3)Gal(b1-4)GlcNAc(b1-6)]Man(a1-6)[Gal(b1-4)GlcNAc(b1-3)Gal(b1-4)GlcNAc(b1-3)Gal(b1-4)GlcNAc(b1-2)Man(a1-3)]Man(b1-4)GlcNAc(b1-4)[Fuc(a1-6)]GlcNAc
# Method in brief: as §1
binder,measurement,setting,value
"MSMEG3662-2a (Mycobacterium smegmatis), A0QYH7_MYCS2 (protein) MGDTLTAGQKLERGGSLQSGNGAYTLTLQDDGNLVLYARDKAVWSTGTNGQDVVRAEVQTDGNFVLYTAEKPVWHTDTKGKKEVKLVLQDDRNLVLYAKDGPAWSSKTDTTEPPPPAPEPEKEAEVAPAAAEEAAPAPVAEPAPAEPAPAAPPPAPPAPRTYTVVSGDTLWAIAERFYGDGSKYQQIADASGIANPDLIHPGQVLTIP",glycan array binding signal (z-score),[1],-0.049
same,glycan array binding signal (z-score),[2],0.038
same,glycan array binding signal (z-score),[3],-0.157
same,glycan array binding signal (z-score),[4],-0.118
same,glycan array binding signal (z-score),[5],-0.117
same,glycan array binding signal (z-score),[6],-0.186
same,glycan array binding signal (z-score),[7],-0.131
same,glycan array binding signal (z-score),[8],-0.001
same,glycan array binding signal (z-score),[9],-0.097
same,glycan array binding signal (z-score),[10],-0.039
same,glycan array binding signal (z-score),[11],-0.046
same,glycan array binding signal (z-score),[12],-0.037
same,glycan array binding signal (z-score),[13],-0.134
same,glycan array binding signal (z-score),[14],-0.073
same,glycan array binding signal (z-score),[15],0.056
same,glycan array binding signal (z-score),[16],-0.204
same,glycan array binding signal (z-score),[17],-0.109
same,glycan array binding signal (z-score),[18],0.122
same,glycan array binding signal (z-score),[19],-0.146
same,glycan array binding signal (z-score),[20],0.125
same,glycan array binding signal (z-score),[21],0.108
same,glycan array binding signal (z-score),[22],0.16
